By IC50 is meant the dose at which the fit gives 50% viability; fits outside the tested doses are given as limits. AUC is the area under the same curve over the 256-fold range up to the top dose, as a fraction: 1 means no effect, lower means more sensitive.
Compound: CC[C@H](Nc1ncnc2[nH]cnc12)c1nc2cccc(F)c2c(=O)n1-c1ccccc1 [CAL-101]
Experiment: Viability of human cancer cell lines after 72 h of drug (GDSC screen)
Description: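 Human cancer cell lines in 384-well plates, medium with 10% serum, drug for 72 h over a 256-fold dose range (nine 2-fold or five 4-fold steps up to the top dose). Adherent lines were fixed and stained with the nucleic acid dye Syto60, suspension lines read with resazurin; signal relative to control wells, capped at 0 and 100%. One two-parameter sigmoid per drug and line, fitted in a mixed model over all curves with the slope shared within a line.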

Cell Line | AUC | IC50 [µM]
COLO-800 (melanoma, adherent, top dose 20 µM) | 0.983 | > 20
COLO-824 (breast, adherent, top dose 20 µM) | 0.961 | > 20
COLO-829 (melanoma, adherent, top dose 20 µM) | 0.914 | > 20
COR-L23 (large cell lung carcinoma, adherent, top dose 20 µM) | 0.948 | > 20
COR-L88 (small cell lung carcinoma, adherent, top dose 20 µM) | 0.979 | > 20
COR-L95 (small cell lung carcinoma, adherent, top dose 20 µM) | 0.97 | > 20
COR-L105 (lung adenocarcinoma, adherent, top dose 20 µM) | 0.926 | > 20
COR-L279 (small cell lung carcinoma, suspension, top dose 20 µM) | 0.836 | 11.2
COR-L303 (small cell lung carcinoma, suspension, top dose 20 µM) | 0.947 | > 20
COR-L311 (small cell lung carcinoma, suspension, top dose 20 µM) | 0.93 | > 20
COR-L321 (lung, suspension, top dose 20 µM) | 0.969 | > 20
CP50-MEL-B (melanoma, adherent, top dose 20 µM) | 0.986 | > 20
CP66-MEL (melanoma, adherent, top dose 20 µM) | 0.984 | > 20
CPC-N (small cell lung carcinoma, suspension, top dose 20 µM) | 0.961 | > 20
CS1 (bone, adherent, top dose 20 µM) | 0.925 | > 20
CTB-1 (B-cell lymphoma, suspension, top dose 20 µM) | 0.979 | > 20
CTV-1 (acute myeloid leukaemia, suspension, top dose 20 µM) | 0.943 | > 20
CW-2 (large intestine, adherent, top dose 20 µM) | 0.962 | > 20
Ca9-22 (head and neck, adherent, top dose 20 µM) | 0.98 | > 20
Ca-Ski (cervix, adherent, top dose 20 µM) | 0.876 | > 20
CaR-1 (large intestine, adherent, top dose 20 µM) | 0.953 | > 20

Cell Line | AUC | IC50 [µM]
Calu-3 (lung adenocarcinoma, adherent, top dose 20 µM) | 0.918 | > 20
Calu-6 (lung adenocarcinoma, adherent, top dose 20 µM) | 0.982 | > 20
Caov-3 (ovary, adherent, top dose 20 µM) | 0.967 | > 20
Caov-4 (ovary, adherent, top dose 20 µM) | 0.858 | > 20
Capan-2 (pancreas, adherent, top dose 20 µM) | 0.97 | > 20
ChaGo-K-1 (non-small cell lung carcinoma, adherent, top dose 20 µM) | 0.96 | > 20
D-247MG (glioma, adherent, top dose 20 µM) | 0.921 | > 20
D-263MG (glioma, adherent, top dose 20 µM) | 0.982 | > 20
D-283MED (medulloblastoma, adherent, top dose 20 µM) | 0.985 | > 20
D-336MG (glioma, adherent, top dose 20 µM) | 0.876 | > 20
D-392MG (glioma, adherent, top dose 20 µM) | 0.95 | > 20
D-423MG (glioma, adherent, top dose 20 µM) | 0.733 | 6.82
D-502MG (glioma, adherent, top dose 20 µM) | 0.938 | > 20
D-542MG (glioma, adherent, top dose 20 µM) | 0.98 | > 20
D-566MG (glioma, adherent, top dose 20 µM) | 0.85 | 14.8
DAN-G (pancreas, adherent, top dose 20 µM) | 0.982 | > 20
DB (B-cell lymphoma, suspension, top dose 20 µM) | 0.976 | > 20
DBTRG-05MG (glioma, adherent, top dose 20 µM) | 0.933 | > 20
DEL (lymphoid neoplasm, suspension, top dose 20 µM) | 0.969 | > 20
DG-75 (Burkitt lymphoma, suspension, top dose 20 µM) | 0.986 | > 20
DJM-1 (skin, adherent, top dose 20 µM) | 0.986 | > 20

Cell Line | AUC | IC50 [µM]
DK-MG (glioma, adherent, top dose 20 µM) | 0.968 | > 20
DMS-53 (small cell lung carcinoma, adherent, top dose 20 µM) | 0.986 | > 20
DMS-79 (small cell lung carcinoma, suspension, top dose 20 µM) | 0.961 | > 20
DMS-114 (small cell lung carcinoma, adherent, top dose 20 µM) | 0.983 | > 20
DMS-273 (small cell lung carcinoma, adherent, top dose 20 µM) | 0.943 | > 20
DND-41 (T-cell leukaemia, suspension, top dose 20 µM) | 0.908 | > 20
DOK (head and neck, adherent, top dose 20 µM) | 0.878 | > 20
DOV13 (ovary, adherent, top dose 20 µM) | 0.979 | > 20
DSH1 (bladder, adherent, top dose 20 µM) | 0.982 | > 20
DU-145 (prostate, adherent, top dose 20 µM) | 0.985 | > 20
DU-4475 (breast, suspension, top dose 20 µM) | 0.989 | > 20
Daoy (medulloblastoma, adherent, top dose 20 µM) | 0.951 | > 20
Daudi (Burkitt lymphoma, suspension, top dose 20 µM) | 0.989 | > 20
Detroit562 (head and neck, adherent, top dose 20 µM) | 0.977 | > 20
DoTc2-4510 (cervix, adherent, top dose 20 µM) | 0.981 | > 20
EB2 (Burkitt lymphoma, suspension, top dose 20 µM) | 0.311 | 0.393
EB-3 (Burkitt lymphoma, suspension, top dose 20 µM) | 0.877 | > 20
EBC-1 (lung squamous cell carcinoma, adherent, top dose 20 µM) | 0.952 | > 20
EC-GI-10 (oesophagus, adherent, top dose 20 µM) | 0.989 | > 20
ECC10 (stomach, suspension, top dose 20 µM) | 0.982 | > 20
EFM-19 (breast, adherent, top dose 20 µM) | 0.938 | > 20

Cell Line | AUC | IC50 [µM]
EFM-192A (breast, adherent, top dose 20 µM) | 0.981 | > 20
EFO-21 (ovary, adherent, top dose 20 µM) | 0.859 | > 20
EFO-27 (ovary, adherent, top dose 20 µM) | 0.948 | > 20
EGI-1 (biliary tract, adherent, top dose 20 µM) | 0.928 | > 20
EJM (lymphoid neoplasm, semi-adherent, top dose 20 µM) | 0.977 | > 20
EKVX (lung adenocarcinoma, adherent, top dose 20 µM) | 0.948 | > 20
EM-2 (chronic myeloid leukaemia, suspension, top dose 20 µM) | 0.921 | > 20
EMC-BAC-1 (lung adenocarcinoma, adherent, top dose 20 µM) | 0.962 | > 20
EMC-BAC-2 (lung adenocarcinoma, adherent, top dose 20 µM) | 0.951 | > 20
EN (endometrium, adherent, top dose 20 µM) | 0.971 | > 20
EPLC-272H (lung squamous cell carcinoma, adherent, top dose 20 µM) | 0.888 | > 20
ES1 (Ewing sarcoma, adherent, top dose 20 µM) | 0.881 | > 20
ES3 (Ewing sarcoma, adherent, top dose 20 µM) | 0.953 | > 20
ES4 (Ewing sarcoma, adherent, top dose 20 µM) | 0.898 | > 20
ES5 (Ewing sarcoma, adherent, top dose 20 µM) | 0.799 | 11.3
ES6 (Ewing sarcoma, adherent, top dose 20 µM) | 0.912 | > 20
ES7 (Ewing sarcoma, adherent, top dose 20 µM) | 0.542 | 1.63
ES8 (Ewing sarcoma, adherent, top dose 20 µM) | 0.914 | > 20

— the supplement of paper PMC4967469
